Common to all, as to experiment: cell-based or functional assay
Assay [1] concerns the target T1, human IL-12 receptor (hIL-12R), heterodimer of hIL-12Rβ1 and hIL-12Rβ2 (human, UniProt P42701 24-662; Q99665 24-862).
Assay [2] deals with T1, human IL-12 receptor (hIL-12R), …. This is another data set of the same source.
For assay [3] the target is unchanged. The source holds these as a separate data set.

Where a chain is given by its changes, count along the chain named. Names and notes keep the numbering of the source.

B1: BCA376, anti-hCAIX hIL-12 fusion protein (hIL-12p40 F82A, K217A) (other)
heavy 1: EVRLVESGGGLVKPGGSLRLSCAASGFTFSNYYMSWIRQAPEKRLELVSAINSDGGITYYLDTVKGRFTISRDNAKNSLYLQMNSLRAEDTALFYCARHRSGYFSMDYWGQGTSVTVSS[human IgG1 constant region with changes left out here]GGGGSGGGGSGGGGSIWELKKDVYVVELDWYPDAPGEMVVLTCDTPEEDGITWTLDQSSEVLGSGKTLTIQVKEAGDAGQYTCHKGGEVLSHSLLLLHKKEDGIWSTDILKDQKEPKNKTFLRCEAKNYSGRFTCWWLTTISTDLTFSVKSSRGSSDPQGVTCGAATLSAERVRGDNKEYEYSVECQEDSACPAAEESLPIEVMVDAVHALKYENYTSSFFIRDIIKPDPPKNLQLKPLKNSRQVEVSWEYPDTWSTPHSYFSLTFCVQVQGKSKREKKDRVFTDKTSATVICRKNASISVRAQDRYYSSSWSEWASVPCS
heavy 2: EVRLVESGGGLVKPGGSLRLSCAASGFTFSNYYMSWIRQAPEKRLELVSAINSDGGITYYLDTVKGRFTISRDNAKNSLYLQMNSLRAEDTALFYCARHRSGYFSMDYWGQGTSVTVSSASTKGPSVFPLAPSSKSTSGGTAALGCLVKDYFPEPVTVSWNSGALTSGVHTFPAVLQSSGLYSLSSVVTVPSSSLGTQTYICNVNHKPSNTKVDKKV[human IgG1 Fc with changes left out here]GGGGSGGGGSGGGGSRNLPVATPDPGMFPCLHHSQNLLRAVSNMLQKARQTLEFYPCTSEEIDHEDITKDKTSTVEACLPLELTKNESCLNSRETSFITNGSCLASRKTSFMMALCLSSIYEDLKMYQVEFKTMNAKLLMDPKRQIFLDQNMLAVIDELMQALNFNSETVPQKSSLEEPDFYKTKIKLCILLHAFRIRAVTIDRVMSYLNAS
light: EIVMTQSPATLSVSPGERATLSCKASQNVVSAVAWYQQKPGQSPRLLIYSASNRYTGIPARFSGSGSGTEFTLTISSLQSEDFAAYYCQQYRNYPWTFGGGTKVEIKRTVAAPSVFIFPPSDEQLKSGTASVVCLLNNFYPREAKVQWKVDNALQSGNSQESVTEQDSKDSTYSLSSTLTLSKADYEKHKVYACEVTHQGLSSPVTKSFNRGEC
Turning to B1, in assay [1], the “Fold Attenuation (Over Fc-IL-12 Control); HEK-Blue IL-12 reporter assay” value worked out at 214 fold. Further, in assay [2], the “HEK-IL12 reporter assay Attenuation (summary table)” value was found to be 214 fold.

B2: BCA326.16, anti-hCAIX hIL-12 fusion protein (hIL-12p40 variant J: E81A, F82A) (other)
heavy 1: EVRLVESGGGLVKPGGSLRLSCAASGFTFSNYYMSWIRQAPEKRLELVSAINSDGGITYYLDTVKGRFTISRDNAKNSLYLQMNSLRAEDTALFYCARHRSGYFSMDYWGQGTSVTVSS[human IgG1 constant region with changes left out here]GGGGSGGGGSGGGGSIWELKKDVYVVELDWYPDAPGEMVVLTCDTPEEDGITWTLDQSSEVLGSGKTLTIQVKAAGDAGQYTCHKGGEVLSHSLLLLHKKEDGIWSTDILKDQKEPKNKTFLRCEAKNYSGRFTCWWLTTISTDLTFSVKSSRGSSDPQGVTCGAATLSAERVRGDNKEYEYSVECQEDSACPAAEESLPIEVMVDAVHKLKYENYTSSFFIRDIIKPDPPKNLQLKPLKNSRQVEVSWEYPDTWSTPHSYFSLTFCVQVQGKSKREKKDRVFTDKTSATVICRKNASISVRAQDRYYSSSWSEWASVPCS
heavy 2: EVRLVESGGGLVKPGGSLRLSCAASGFTFSNYYMSWIRQAPEKRLELVSAINSDGGITYYLDTVKGRFTISRDNAKNSLYLQMNSLRAEDTALFYCARHRSGYFSMDYWGQGTSVTVSSASTKGPSVFPLAPSSKSTSGGTAALGCLVKDYFPEPVTVSWNSGALTSGVHTFPAVLQSSGLYSLSSVVTVPSSSLGTQTYICNVNHKPSNTKVDKKV[human IgG1 Fc with changes left out here]GGGGSGGGGSGGGGSRNLPVATPDPGMFPCLHHSQNLLRAVSNMLQKARQTLEFYPCTSEEIDHEDITKDKTSTVEACLPLELTKNESCLNSRETSFITNGSCLASRKTSFMMALCLSSIYEDLKMYQVEFKTMNAKLLMDPKRQIFLDQNMLAVIDELMQALNFNSETVPQKSSLEEPDFYKTKIKLCILLHAFRIRAVTIDRVMSYLNAS
light: B1 light with R92S
With B2, in assay [3], the “HEK IL-12 Reporter Assay (Ratio of EC50)” value was determined as 374 ratio and the “PSTAT (CD8) flow cytometry - percent reduction at 16.9 nM” value amounted to 50.2%.

B3: BCA373, anti-hCAIX hIL-12 fusion protein (hIL-12p40 W37A, F82A) (other)
heavy 1: EVRLVESGGGLVKPGGSLRLSCAASGFTFSNYYMSWIRQAPEKRLELVSAINSDGGITYYLDTVKGRFTISRDNAKNSLYLQMNSLRAEDTALFYCARHRSGYFSMDYWGQGTSVTVSS[human IgG1 constant region with changes left out here]GGGGSGGGGSGGGGSIWELKKDVYVVELDAYPDAPGEMVVLTCDTPEEDGITWTLDQSSEVLGSGKTLTIQVKEAGDAGQYTCHKGGEVLSHSLLLLHKKEDGIWSTDILKDQKEPKNKTFLRCEAKNYSGRFTCWWLTTISTDLTFSVKSSRGSSDPQGVTCGAATLSAERVRGDNKEYEYSVECQEDSACPAAEESLPIEVMVDAVHKLKYENYTSSFFIRDIIKPDPPKNLQLKPLKNSRQVEVSWEYPDTWSTPHSYFSLTFCVQVQGKSKREKKDRVFTDKTSATVICRKNASISVRAQDRYYSSSWSEWASVPCS
heavy 2: EVRLVESGGGLVKPGGSLRLSCAASGFTFSNYYMSWIRQAPEKRLELVSAINSDGGITYYLDTVKGRFTISRDNAKNSLYLQMNSLRAEDTALFYCARHRSGYFSMDYWGQGTSVTVSSASTKGPSVFPLAPSSKSTSGGTAALGCLVKDYFPEPVTVSWNSGALTSGVHTFPAVLQSSGLYSLSSVVTVPSSSLGTQTYICNVNHKPSNTKVDKKV[human IgG1 Fc with changes left out here]GGGGSGGGGSGGGGSRNLPVATPDPGMFPCLHHSQNLLRAVSNMLQKARQTLEFYPCTSEEIDHEDITKDKTSTVEACLPLELTKNESCLNSRETSFITNGSCLASRKTSFMMALCLSSIYEDLKMYQVEFKTMNAKLLMDPKRQIFLDQNMLAVIDELMQALNFNSETVPQKSSLEEPDFYKTKIKLCILLHAFRIRAVTIDRVMSYLNAS
light: B1 light
Turning to B3, the “Fold Attenuation (Over Fc-IL-12 Control); HEK-Blue IL-12 reporter assay” value in assay [1] stood at 207 fold. Besides, the “HEK-IL12 reporter assay Attenuation (summary table)” value in assay [2] turned out to be 207 fold.

B4: BCA332.16, anti-hCAIX hIL-12 fusion protein (hIL-12p40 variant P: K106A, K217A, K219A) (other)
heavy 1: EVRLVESGGGLVKPGGSLRLSCAASGFTFSNYYMSWIRQAPEKRLELVSAINSDGGITYYLDTVKGRFTISRDNAKNSLYLQMNSLRAEDTALFYCARHRSGYFSMDYWGQGTSVTVSS[human IgG1 constant region with changes left out here]GGGGSGGGGSGGGGSIWELKKDVYVVELDWYPDAPGEMVVLTCDTPEEDGITWTLDQSSEVLGSGKTLTIQVKEFGDAGQYTCHKGGEVLSHSLLLLHAKEDGIWSTDILKDQKEPKNKTFLRCEAKNYSGRFTCWWLTTISTDLTFSVKSSRGSSDPQGVTCGAATLSAERVRGDNKEYEYSVECQEDSACPAAEESLPIEVMVDAVHALAYENYTSSFFIRDIIKPDPPKNLQLKPLKNSRQVEVSWEYPDTWSTPHSYFSLTFCVQVQGKSKREKKDRVFTDKTSATVICRKNASISVRAQDRYYSSSWSEWASVPCS
heavy 2: EVRLVESGGGLVKPGGSLRLSCAASGFTFSNYYMSWIRQAPEKRLELVSAINSDGGITYYLDTVKGRFTISRDNAKNSLYLQMNSLRAEDTALFYCARHRSGYFSMDYWGQGTSVTVSSASTKGPSVFPLAPSSKSTSGGTAALGCLVKDYFPEPVTVSWNSGALTSGVHTFPAVLQSSGLYSLSSVVTVPSSSLGTQTYICNVNHKPSNTKVDKKV[human IgG1 Fc with changes left out here]GGGGSGGGGSGGGGSRNLPVATPDPGMFPCLHHSQNLLRAVSNMLQKARQTLEFYPCTSEEIDHEDITKDKTSTVEACLPLELTKNESCLNSRETSFITNGSCLASRKTSFMMALCLSSIYEDLKMYQVEFKTMNAKLLMDPKRQIFLDQNMLAVIDELMQALNFNSETVPQKSSLEEPDFYKTKIKLCILLHAFRIRAVTIDRVMSYLNAS
light: B1 light with R92S
Consider B4, for which, in assay [3], the “HEK IL-12 Reporter Assay (Ratio of EC50)” value is 141 ratio.
